These results are taken from patent US9290464B2 (priority 2010, dated 2016).

Each structure is given as a SMILES string.

In the test the test system is MPTP-induced mouse. Briefly: Immunohistochemistry staining with antibody against tyrosine hydroxylase, neurons of substantia nigra, MPTP-induced mouse. To be noted: 1 mg/kg oral; compared with rasagiline group; FIG. 5. Here is the method: C57BL/6 mice (n=94, 8-week-old; male) were used as an experimental model (substrain: C57BL/6NCrljBgi, ORIENT BIO INC.). 30 mg/kg of MPTP was administered to the mice via intraperitoneal injection once a day for 4 days. 4 days after the last day of administration, the mice were divided into three group, and an excipient (control), 1 mg/kg of CBI, and 1 mg/kg of rasagiline were respectively administered orally to the three groups once a day for 10 days. Next day after the last day of administration, a tail suspension test (TST) was performed on each group, and striatum and substantia nigra brain tissue were taken out from each group of mice, and thus the concentrations of dopamine and metabolic product thereof in striatum and the extent of a decrease in neurons in substantia nigra were measured.
A change in the expression of an antibody against tyrosine hydroxylase in striatum and substantia nigra according to the administration of the compounds described above was measured by immunohistochemistry staining. Each group of mice was anesthetized with sodium pentobarbital (50 mg/kg), the thorax of the mouse was opened, and 200 ml of 0.1 M PBS (pH 7.4) was perfused into the heart, thereby removing blood in blood vessels. […]

As for `NC(=O)OCc1cc(-c2ccc(OCc3ccccc3)cc2)no1` [CBI, carbamic acid 3-(4-benzyloxy-phenyl)-isoxazole-5-yl methylester], the “extent of a decrease in neurons in substantia nigra (tyrosine hydroxylase staining)” value is “the same extent of a decrease in neurons in substantia nigra”.
